{
  "source": "the RNAGym collection of RNA variant scans (doi:10.7554/elife.90254)",
  "parents": {"B1": {"name": "LINE1-mini (parent)", "chain": "GGCAGAGCUCAACACAGCGUGGCAAAGUGGCUGUGGCUAGACUGCC"}},
  "note": "The source gives no read counts; variants with many changes may rest on few reads.",
  "data": [
    {"variants_of": "B1", "experiment": "self-cleavage, relative activity (ratio to wild type); higher = more cleavage; in vitro, sequencing; the parent is a self-cleaving ribozyme", "values": [
      {"variant": "GGCAGCGCUCAACACACCGUCUAAAAGUGGCUGUGGCUAGACUGCU", "note": "[A6C G17C G21C G22U C23A C46U]", "self-cleavage": 0.32},
      {"variant": "GGCAGAGCUCGACACAGCGUGGUAAAGUCGCUGUGGCUAGACUGCC", "note": "[A11G C23U G29C]", "self-cleavage": 0},
      {"variant": "GGCAGGGCUCAACACAGCGUGGCUAAGUGGCUGUGGCUAGUCUGCU", "note": "[A6G A24U A41U C46U]", "self-cleavage": 0.1},
      {"variant": "GGGAGAGCCCAACACAGCGUGGCAAAGUGGCUGUGGCUACACCGCC", "note": "[C3G U9C G40C U43C]", "self-cleavage": 0.11},
      {"variant": "GGCAGAGCUCUACAUAGCGUGGCAAAGUGGCUGUGGAGAGACUGCC", "note": "[A11U C15U C37A U38G]", "self-cleavage": 0},
      {"variant": "GGCAGAGCUCAACACAGCGUGGUAAAGUGGCAGUGGCGGGACUGCC", "note": "[C23U U32A U38G A39G]", "self-cleavage": 0.04},
      {"variant": "GGCAGAGCUCAACACUGCCGGGCAAAGUGACUGUGGCUAGACUGCC", "note": "[A16U G19C U20G G30A]", "self-cleavage": 0.02},
      {"variant": "GGCAGAGCUCAACACAUGCUGGCAAAGUGGCUGUGGCUAGACUGCC", "note": "[G17U C18G G19C]", "self-cleavage": 0.43},
      {"variant": "GGCAGAGCUGAACACAGCGUGGCAAAGUGGCUGGAGCUAGACUGCC", "note": "[C10G U34G G35A]", "self-cleavage": 0.01},
      {"variant": "GGCAGAGCUCACCACAUCGUGGAAAAGUGGCUGUGGCUAGACUGCC", "note": "[A12C G17U C23A]", "self-cleavage": 0.02},
      {"variant": "GGCAGAGCUCAACAAAAUGUGGCAAAGUGGCUGUGCCUAGUCUGCC", "note": "[C15A G17A C18U G36C A41U]", "self-cleavage": 0.17},
      {"variant": "GGCAGAGCUCAACACAGCGUGCAAAAGUUGGUUUGGCUAGACUGCC", "note": "[G22C C23A G29U C31G G33U]", "self-cleavage": 0.02},
      {"variant": "GGCAGAACUCAACAGAGCGUUGCAAAGUGGCUGUGGCUAGACUGCC", "note": "[G7A C15G G21U]", "self-cleavage": 0.09},
      {"variant": "GGCAGAGCUCAUCACAAUGUGGCAAAGUGGGUGUGCCUAGACUGCC", "note": "[A12U G17A C18U C31G G36C]", "self-cleavage": 0.01},
      {"variant": "UGCAGAGCUCAAGGCAGCGUGGCAAAGUGGCUGUGGCUAGACUGCC", "note": "[G1U C13G A14G]", "self-cleavage": 0.1},
      {"variant": "GGCAGAGCUCAACACAGCGCGGCAUAGUGGCUGUGGCUAGACUGGC", "note": "[U20C A25U C45G]", "self-cleavage": 0.01},
      {"variant": "UGCAGAGCUCAACACAGCGUGUCAAAGUGGCUGUGGCUACACGGCC", "note": "[G1U G22U G40C U43G]", "self-cleavage": 0.01},
      {"variant": "GGCAUAGGUCAGCACAGCGUGGCAAAGUGGCUGUGGCUAGACUGCC", "note": "[G5U C8G A12G]", "self-cleavage": 0.02},
      {"variant": "AGCAGGGCUCAACACAGCGUGGCAAAGUGGCUGUCGCCAGACUGCC", "note": "[G1A A6G G35C U38C]", "self-cleavage": 0.02},
      {"variant": "GGAAGAGCUCAACACAGCGUGGCAAAUUGGCUGUGGCUAGACUGGC", "note": "[C3A G27U C45G]", "self-cleavage": 0.18},
      {"variant": "GGUAAAGCUCAACACAGCGUGGCAAAGUGGCUGUUGCUAAACUGCC", "note": "[C3U G5A G35U G40A]", "self-cleavage": 0.04},
      {"variant": "GUCAGAGCUCAACACAGCGUGGCAAAGUGGCUGUGGCUAUACUGUC", "note": "[G2U G40U C45U]", "self-cleavage": 0.01},
      {"variant": "GGCAGGGCUCAACACAGCGUGUCAAAGUGACUGUGGCUAGACUGCC", "note": "[A6G G22U G30A]", "self-cleavage": 0.29},
      {"variant": "GGCAGAGCUCAACACAGCGUGGCAUAAUGGCUGUGAUUAGACUGGC", "note": "[A25U G27A G36A C37U C45G]", "self-cleavage": 0.25},
      {"variant": "GGCAGAGCUCAACACGGCGUGGCAAAGUAGCAGUGGCUAGACUGCC", "note": "[A16G G29A U32A]", "self-cleavage": 0.05},
      {"variant": "GGCAGAGCUAAACACAGCAUGGUCAAGUGGCUGUGGCUAGACUGCC", "note": "[C10A G19A C23U A24C]", "self-cleavage": 0.01},
      {"variant": "GGCAAAGGUCAACACAGCGUGGAAAAGUGGAUGUGGCUAGACUGCC", "note": "[G5A C8G C23A C31A]", "self-cleavage": 0.25},
      {"variant": "GGCAGAGCUCAACACUGCGUGGCAAAGUGGCUGUGGAUAGACUGGC", "note": "[A16U C37A C45G]", "self-cleavage": 0.04},
      {"variant": "GGCAGUGCUCAACACAGCAUGGCAAAGUGGAUGUAGCUACACUGGC", "note": "[A6U G19A C31A G35A G40C C45G]", "self-cleavage": 0.04},
      {"variant": "CGCAGCGCUCAACACAGCGUGGAAAAGUGGCUGUGGCUAGACUGCC", "note": "[G1C A6C C23A]", "self-cleavage": 0.29},
      {"variant": "GGUAGAGCUCAACCCAGCGUUGCAAAGUGGCUGUGGCUAGAGUCCC", "note": "[C3U A14C G21U C42G G44C]", "self-cleavage": 0.01},
      {"variant": "GACAGAGCUCAACACAGCGUGGUAGAGUGGCUGUGGCUAGAUAGCC", "note": "[G2A C23U A25G C42U U43A]", "self-cleavage": 0.02},
      {"variant": "GGCAGAGAUCAAAACCGCGUGGCAAAGUGGCUGUGGCUAGACUGCC", "note": "[C8A C13A A16C]", "self-cleavage": 0.43},
      {"variant": "GGCAGCGCUCAACAAAGGGUGGCGAAGUGGUUGUGUCUAGACUGCC", "note": "[A6C C15A C18G A24G C31U G36U]", "self-cleavage": 0.01},
      {"variant": "GGCAGAGCUAAACACAGCGUUCCAAAGUGGCUGUGGCUAGACUGCU", "note": "[C10A G21U G22C C46U]", "self-cleavage": 0.07},
      {"variant": "GGCCGAGCUCAACACCGCGUGACGAAGUGGCUGUGGCUAGUCUGCC", "note": "[A4C A16C G22A A24G A41U]", "self-cleavage": 0},
      {"variant": "GGCUGAGCUAAACACAGCGUGGCAAAGCGGCUGUGGCUAUACUGCC", "note": "[A4U C10A U28C G40U]", "self-cleavage": 0.06},
      {"variant": "GGCGGAGCUCAACACAGAGUGGCAAUGUGGCUGUGGCUAAACUGCC", "note": "[A4G C18A A26U G40A]", "self-cleavage": 0.14},
      {"variant": "GCCAGAGCACAACACAGCGUGGCAAAGUGGCUGAGCCUUGGCUGCC", "note": "[G2C U9A U34A G36C A39U A41G]", "self-cleavage": 0.02},
      {"variant": "UGCAGAGCUCAACACAGCGUGGCAAAGAGGGAGUGCCUAGACUGCC", "note": "[G1U U28A C31G U32A G36C]", "self-cleavage": 0.03},
      {"variant": "GGCAGAGCUCCACUCAGCGUGGCUAAGCGGCUGUGGCUAGACUGCC", "note": "[A11C A14U A24U U28C]", "self-cleavage": 0.01},
      {"variant": "GGCACAGCUCAACACAGCGUGGCAAAGUGGCUGUGGCUGGACUGCU", "note": "[G5C A39G C46U]", "self-cleavage": 0.03},
      {"variant": "CGCAGAGCUCAACACAGCGUGUGAAAGUGACUCUGGCUAAACUGCC", "note": "[G1C G22U C23G G30A G33C G40A]", "self-cleavage": 0},
      {"variant": "GGAAGAGCUCACCACAGCGUGACAAAGUGUCUGUGGCUAGACUGCC", "note": "[C3A A12C G22A G30U]", "self-cleavage": 0.06},
      {"variant": "GGCAGAGCUCAACACAGCGUCUCAAAGUGGCUGUGGCUAGACUGCG", "note": "[G21C G22U C46G]", "self-cleavage": 0.36},
      {"variant": "GGCAGCGCUCAACAUAGAGUGGCUAAGUGGCUGUGGCUAGACUGCC", "note": "[A6C C15U C18A A24U]", "self-cleavage": 0.02},
      {"variant": "GGCAGAGCUCAACACAGCCUGGCAAACUGCCUGUGGCUAGACUGCC", "note": "[G19C G27C G30C]", "self-cleavage": 0.46},
      {"variant": "GACCGAGCUCCACACAGCGUGGCAAAGCGAGUGUGGCUAGAUUGCC", "note": "[G2A A4C A11C U28C G30A C31G C42U]", "self-cleavage": 0.01},
      {"variant": "GGCAGAGCUCUACACAGCGUGGAAAAGUGGCUGUGGCUAGACUGGC", "note": "[A11U C23A C45G]", "self-cleavage": 0.03},
      {"variant": "GGCAGAGCUAGGUACAGCGUGGCAAAGACGCUGUGGGAAGACUGCC", "note": "[C10A A11G A12G C13U U28A G29C C37G U38A]", "self-cleavage": 0.01},
      {"variant": "GGCAGAGUUUAACACAGCGUGGCAAAGUGGCUGUGGCUGAACUGCC", "note": "[C8U C10U A39G G40A]", "self-cleavage": 0.01},
      {"variant": "GACAGAGCUUAACACAGCGUGGAAAAGUGGCUGUGGCUAGACAGCC", "note": "[G2A C10U C23A U43A]", "self-cleavage": 0.08},
      {"variant": "GGCACAGCUCAACACAGCGUGGUUAAGUCGCUGUGGCUAGCCUGCC", "note": "[G5C C23U A24U G29C A41C]", "self-cleavage": 0.06},
      {"variant": "GGCAGAGCUCAACACAGCGUUGCAAUCUGGCUGUGGCUAGACUGCC", "note": "[G21U A26U G27C]", "self-cleavage": 0.41},
      {"variant": "GGCAGAUUUCAAUGCAGCGUGGCAAAGUGGCUGUGGCGAGACCGCC", "note": "[G7U C8U C13U A14G U38G U43C]", "self-cleavage": 0.14},
      {"variant": "GGCACAACUUAACGCAGCGUGGCCGAGUGCCUGUGGCGAGACUGCC", "note": "[G5C G7A C10U A14G A24C A25G G30C U38G]", "self-cleavage": 0.07}
    ]}
  ]
}
